# Assay results as given in the supplement of paper PMC8728848.
# Some of the results follow.
# B1: PX9896A-bth-573-26-573 (Bacteroides thetaiotaomicron) (protein)
# chain: ETNNLKTKEDMYKYFGTSKSMLTHVYSYMPQGYQLFATSGGIFTEDRYSMRDCASDDGEFGAYADNIQNTNNGNWSPIKTYDDSWTLYRGIRAANSFIAEIAQVDFTRYEHDGQYTNWMKQLKYFPYEARVLRAHYFFELARRYGDIAMPLEVLTEEEANTIGKTPFSEVISFIVSECDDAANNLPDSYVNEPGAEIGRVTKGFAMAVKSKALLYAASKLHNPSMDTELWKKSAKAAIDIINTGLYSLDPQESANNLDSKEVVLMRINGDDSDFEMFNLPLRMTAGTRTSSLIPYSNYPSQNLVDAFETVNGYKVTLENTGWVCEDPAFDPQSPYENRDKRFYRAILANGMSFKDYTIETFKGGADDGIVSQGGSPTGYFLRKYIQEATSFEPGKEAVSKHHWVIYRYAETLLTYAESMVNAFNDVNYTDETYKYSALWAINEVRKNADMPLIPSMGKDEFMERLYNEWRVEFAFEDHRFWDVRRWKIADTTQRELYGVKIEKQADGTFNFYKNLYETRNWRDCMYLYPIPQSELYKNTNLNPQNTGW
# How the values were obtained:
# Assay in all cases: glycan array binding signal (z-score within array); higher = stronger binding
# Settings in all cases: glycan notation: IUPAC condensed, linker removed
# Fuc(a1-3)GlcNAc = target: Fuc(a1-3)GlcNAc
# Summary of the method: (§1)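 The binding signal is a Z-score computed within each array and averaged over linkers. Arrays of the same protein sequence at different concentrations or buffers were also averaged together. Data originate from 3228 arrays in the Consortium for Functional Glycomics database, kept only where the protein sequence was available.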
# [1] = target: Fuc(a1-3)[Gal(b1-4)]Glc6S
# Summary of the method: as §1
# [2] = target: Fuc(a1-3)[Gal(b1-4)]GlcNAc
# Summary of the method: as §1
# [3] = target: Fuc(a1-3)[Gal(b1-4)]GlcNAc(b1-2)Man
# Summary of the method: as §1
# [4] = target: Fuc(a1-3)[Gal(b1-4)]GlcNAc(b1-2)Man(a1-3)[Fuc(a1-3)[Gal(b1-4)]GlcNAc(b1-2)Man(a1-6)]Man(b1-4)GlcNAc(b1-4)GlcNAc
# Summary of the method: as §1
# [5] = target: Fuc(a1-3)[Gal(b1-4)]GlcNAc(b1-2)Man(a1-3)[Fuc(a1-3)[Gal(b1-4)]GlcNAc(b1-2)Man(a1-6)]Man(b1-4)GlcNAc(b1-4)[Fuc(a1-6)]GlcNAc
# Summary of the method: as §1
# [6] = target: Fuc(a1-3)[Gal(b1-4)]GlcNAc(b1-3)Gal(b1-3)[Fuc(a1-4)]GlcNAc
# Summary of the method: as §1
# [7] = target: Fuc(a1-3)[Gal(b1-4)]GlcNAc(b1-3)Gal(b1-4)[Fuc(a1-3)]GlcNAc
# Summary of the method: as §1
# [8] = target: Fuc(a1-3)[Gal(b1-4)]GlcNAc(b1-3)Gal(b1-4)[Fuc(a1-3)]GlcNAc(b1-3)Gal(b1-4)[Fuc(a1-3)]GlcNAc
# Summary of the method: as §1
# [9] = target: Fuc(a1-3)[Gal(b1-4)]GlcNAc(b1-3)GalNAc
# Summary of the method: as §1
# [10] = target: Fuc(a1-3)[Gal(b1-4)]GlcNAc(b1-6)GalNAc
# Summary of the method: as §1
# [11] = target: Fuc(a1-3)[Gal(b1-4)]GlcNAc(b1-6)[Gal(b1-3)GlcNAc(b1-3)]Gal(b1-4)Glc
# Summary of the method: as §1
# [12] = target: Fuc(a1-3)[Gal(b1-4)]GlcNAc6S
# Summary of the method: as §1
# [13] = target: Fuc(a1-3)[Gal3S(b1-4)]Glc
# Summary of the method: as §1
# [14] = target: Fuc(a1-3)[Gal3S(b1-4)]GlcNAc
# Summary of the method: as §1
# [15] = target: Fuc(a1-3)[Gal3S(b1-4)]GlcNAc6S
# Summary of the method: as §1
# [16] = target: Fuc(a1-3)[GalNAc(b1-4)]GlcNAc
# Summary of the method: as §1
# [17] = target: Fuc(a1-3)[GalNAc(b1-4)]GlcNAc6S
# Summary of the method: as §1
# Fuc(a1-4)GlcNAc = target: Fuc(a1-4)GlcNAc
# Summary of the method: as §1
# Fuc(b1-3)GlcNAc = target: Fuc(b1-3)GlcNAc
# Summary of the method: as §1
# Gal(a1-2)Gal = target: Gal(a1-2)Gal
# Summary of the method: as §1
# Gal(a1-3)Gal = target: Gal(a1-3)Gal
# Summary of the method: as §1
# Gal(a1-3)Gal(b1-3)GlcNAc = target: Gal(a1-3)Gal(b1-3)GlcNAc
# Summary of the method: as §1
# [18] = target: Gal(a1-3)Gal(b1-3)GlcNAc(b1-2)Man
# Summary of the method: as §1
# [19] = target: Gal(a1-3)Gal(b1-3)GlcNAc(b1-2)Man(a1-3)[Gal(a1-3)Gal(b1-3)GlcNAc(b1-2)Man(a1-6)]Man(b1-4)GlcNAc(b1-4)GlcNAc
# Summary of the method: as §1
# [20] = target: Gal(a1-3)Gal(b1-3)GlcNAc(b1-3)GalNAc
# Summary of the method: as §1
# [21] = target: Gal(a1-3)Gal(b1-3)GlcNAc(b1-6)GalNAc
# Summary of the method: as §1
# [22] = target: Gal(a1-3)Gal(b1-3)[Fuc(a1-4)]GlcNAc(b1-2)Man(a1-3)[Gal(a1-3)Gal(b1-3)[Fuc(a1-4)]GlcNAc(b1-2)Man(a1-6)]Man(b1-4)GlcNAc(b1-4)GlcNAc
# Summary of the method: as §1
# Gal(a1-3)Gal(b1-4)Glc = target: Gal(a1-3)Gal(b1-4)Glc
# Summary of the method: as §1
# Gal(a1-3)Gal(b1-4)GlcNAc = target: Gal(a1-3)Gal(b1-4)GlcNAc
# Summary of the method: as §1
# [23] = target: Gal(a1-3)Gal(b1-4)GlcNAc(b1-2)Man
# Summary of the method: as §1
# [24] = target: Gal(a1-3)Gal(b1-4)GlcNAc(b1-2)Man(a1-3)[Gal(a1-3)Gal(b1-4)GlcNAc(b1-2)Man(a1-6)]Man(b1-4)GlcNAc(b1-4)GlcNAc
# Summary of the method: as §1
# [25] = target: Gal(a1-3)Gal(b1-4)GlcNAc(b1-3)GalNAc
# Summary of the method: as §1
# [26] = target: Gal(a1-3)Gal(b1-4)GlcNAc(b1-6)GalNAc
# Summary of the method: as §1
# [27] = target: Gal(a1-3)Gal(b1-4)[Fuc(a1-3)]GlcNAc
# Summary of the method: as §1
# [28] = target: Gal(a1-3)Gal(b1-4)[Fuc(a1-3)]GlcNAc(b1-2)Man(a1-3)[Gal(a1-3)Gal(b1-4)[Fuc(a1-3)]GlcNAc(b1-2)Man(a1-6)]Man(b1-4)GlcNAc(b1-4)GlcNAc
# Summary of the method: as §1
# Gal(a1-3)GalNAc = target: Gal(a1-3)GalNAc
# Summary of the method: as §1
# [29] = target: Gal(a1-3)[Gal(a1-4)]Gal(b1-4)GlcNAc
# Summary of the method: as §1
# [30] = target: Gal(a1-4)Gal(b1-3)GlcNAc(b1-2)Man(a1-3)[Gal(a1-4)Gal(b1-3)GlcNAc(b1-2)Man(a1-6)]Man(b1-4)GlcNAc(b1-4)GlcNAc
# Summary of the method: as §1
# Gal(a1-4)Gal(b1-4)Glc = target: Gal(a1-4)Gal(b1-4)Glc
# Summary of the method: as §1
# Gal(a1-4)Gal(b1-4)GlcNAc = target: Gal(a1-4)Gal(b1-4)GlcNAc
# Summary of the method: as §1
# [31] = target: Gal(a1-4)Gal(b1-4)GlcNAc(b1-2)Man(a1-3)[Gal(a1-4)Gal(b1-4)GlcNAc(b1-2)Man(a1-6)]Man(b1-4)GlcNAc(b1-4)GlcNAc
# Summary of the method: as §1
# [32] = target: Gal(a1-4)Gal(b1-4)GlcNAc(b1-3)Gal(b1-4)Glc
# Summary of the method: as §1
# Gal(a1-4)GlcNAc = target: Gal(a1-4)GlcNAc
# Summary of the method: as §1
# Gal(a1-6)Glc = target: Gal(a1-6)Glc
# Summary of the method: as §1
# Gal(b1-2)Gal = target: Gal(b1-2)Gal
# Summary of the method: as §1
# Gal(b1-3)Gal = target: Gal(b1-3)Gal
# Summary of the method: as §1
# Gal(b1-3)Gal(b1-4)GlcNAc = target: Gal(b1-3)Gal(b1-4)GlcNAc
# Summary of the method: as §1
# Gal(b1-3)GalNAc = target: Gal(b1-3)GalNAc
# Summary of the method: as §1
# [33] = target: Gal(b1-3)GalNAc(a1-3)[Fuc(a1-2)]Gal(b1-4)Glc
# Summary of the method: as §1
# [34] = target: Gal(b1-3)GalNAc(a1-3)[Fuc(a1-2)]Gal(b1-4)GlcNAc
# Summary of the method: as §1
# Gal(b1-3)GalNAc(b1-3)Gal = target: Gal(b1-3)GalNAc(b1-3)Gal
# Summary of the method: as §1
# [35] = target: Gal(b1-3)GalNAc(b1-3)Gal(a1-4)Gal(b1-4)Glc
# Summary of the method: as §1
# [36] = target: Gal(b1-3)GalNAc(b1-4)Gal(b1-4)Glc
# Summary of the method: as §1
# [37] = target: Gal(b1-3)GalNAc(b1-4)[Neu5Ac(a2-3)]Gal(b1-4)Glc
# Summary of the method: as §1
# Gal(b1-3)GlcNAc = target: Gal(b1-3)GlcNAc
# Summary of the method: as §1
# [38] = target: Gal(b1-3)GlcNAc(a1-3)Gal(b1-4)GlcNAc
# Summary of the method: as §1
# [39] = target: Gal(b1-3)GlcNAc(a1-6)Gal(b1-4)GlcNAc
# Summary of the method: as §1
# Gal(b1-3)GlcNAc(b1-2)Man = target: Gal(b1-3)GlcNAc(b1-2)Man
# Summary of the method: as §1
# [40] = target: Gal(b1-3)GlcNAc(b1-2)Man(a1-3)[Gal(b1-3)GlcNAc(b1-2)Man(a1-6)]Man(b1-4)GlcNAc(b1-4)GlcNAc
# Summary of the method: as §1
binder,measurement,setting,value
B1,glycan array binding signal (z-score),Fuc(a1-3)GlcNAc,0.483
same,glycan array binding signal (z-score),[1],0.816
same,glycan array binding signal (z-score),[2],-0.224
same,glycan array binding signal (z-score),[3],-0.696
same,glycan array binding signal (z-score),[4],0.505
same,glycan array binding signal (z-score),[5],-0.154
same,glycan array binding signal (z-score),[6],-0.382
same,glycan array binding signal (z-score),[7],0.526
same,glycan array binding signal (z-score),[8],-0.108
same,glycan array binding signal (z-score),[9],0.47
same,glycan array binding signal (z-score),[10],1.4
same,glycan array binding signal (z-score),[11],-0.822
same,glycan array binding signal (z-score),[12],-0.05
same,glycan array binding signal (z-score),[13],-0.662
same,glycan array binding signal (z-score),[14],-0.437
same,glycan array binding signal (z-score),[15],8.17
same,glycan array binding signal (z-score),[16],0.041
same,glycan array binding signal (z-score),[17],-0.499
same,glycan array binding signal (z-score),Fuc(a1-4)GlcNAc,0.243
same,glycan array binding signal (z-score),Fuc(b1-3)GlcNAc,-0.625
same,glycan array binding signal (z-score),Gal(a1-2)Gal,-0.959
same,glycan array binding signal (z-score),Gal(a1-3)Gal,-0.569
same,glycan array binding signal (z-score),Gal(a1-3)Gal(b1-3)GlcNAc,0.457
same,glycan array binding signal (z-score),[18],-0.263
same,glycan array binding signal (z-score),[19],0.292
same,glycan array binding signal (z-score),[20],0.176
same,glycan array binding signal (z-score),[21],0.214
same,glycan array binding signal (z-score),[22],-0.543
same,glycan array binding signal (z-score),Gal(a1-3)Gal(b1-4)Glc,-0.237
same,glycan array binding signal (z-score),Gal(a1-3)Gal(b1-4)GlcNAc,-0.395
same,glycan array binding signal (z-score),[23],0.595
same,glycan array binding signal (z-score),[24],1.07
same,glycan array binding signal (z-score),[25],-0.107
same,glycan array binding signal (z-score),[26],0.925
same,glycan array binding signal (z-score),[27],0.702
same,glycan array binding signal (z-score),[28],2.9
same,glycan array binding signal (z-score),Gal(a1-3)GalNAc,-0.302
same,glycan array binding signal (z-score),[29],3.79
same,glycan array binding signal (z-score),[30],0.806
same,glycan array binding signal (z-score),Gal(a1-4)Gal(b1-4)Glc,0.696
same,glycan array binding signal (z-score),Gal(a1-4)Gal(b1-4)GlcNAc,-0.124
same,glycan array binding signal (z-score),[31],0.471
same,glycan array binding signal (z-score),[32],-0.305
same,glycan array binding signal (z-score),Gal(a1-4)GlcNAc,0.584
same,glycan array binding signal (z-score),Gal(a1-6)Glc,-0.739
same,glycan array binding signal (z-score),Gal(b1-2)Gal,-0.829
same,glycan array binding signal (z-score),Gal(b1-3)Gal,-0.599
same,glycan array binding signal (z-score),Gal(b1-3)Gal(b1-4)GlcNAc,-0.711
same,glycan array binding signal (z-score),Gal(b1-3)GalNAc,-0.329
same,glycan array binding signal (z-score),[33],-0.889
same,glycan array binding signal (z-score),[34],-0.054
same,glycan array binding signal (z-score),Gal(b1-3)GalNAc(b1-3)Gal,-0.496
same,glycan array binding signal (z-score),[35],-0.08
same,glycan array binding signal (z-score),[36],-0.458
same,glycan array binding signal (z-score),[37],0.433
same,glycan array binding signal (z-score),Gal(b1-3)GlcNAc,-0.711
same,glycan array binding signal (z-score),[38],-0.321
same,glycan array binding signal (z-score),[39],-0.111
same,glycan array binding signal (z-score),Gal(b1-3)GlcNAc(b1-2)Man,-0.375
same,glycan array binding signal (z-score),[40],0.457
